According to paper PMC4336329 (PLoS ONE, 2015):
Among all 310,000 compounds or so, about 2,200 (0.71%) showed an effect of 50% or more. The effect is printed as a negative number. The list shows a part of the results.

Target: human ether-à-go-go-related gene (hERG) potassium channel (human, UniProt Q12809)
Assay: primary screen, population patch clamp on CHO cells stably expressing hERG

Sequence of human ether-à-go-go-related gene (hERG) potassium channel (Q12809 whole entry, looked up): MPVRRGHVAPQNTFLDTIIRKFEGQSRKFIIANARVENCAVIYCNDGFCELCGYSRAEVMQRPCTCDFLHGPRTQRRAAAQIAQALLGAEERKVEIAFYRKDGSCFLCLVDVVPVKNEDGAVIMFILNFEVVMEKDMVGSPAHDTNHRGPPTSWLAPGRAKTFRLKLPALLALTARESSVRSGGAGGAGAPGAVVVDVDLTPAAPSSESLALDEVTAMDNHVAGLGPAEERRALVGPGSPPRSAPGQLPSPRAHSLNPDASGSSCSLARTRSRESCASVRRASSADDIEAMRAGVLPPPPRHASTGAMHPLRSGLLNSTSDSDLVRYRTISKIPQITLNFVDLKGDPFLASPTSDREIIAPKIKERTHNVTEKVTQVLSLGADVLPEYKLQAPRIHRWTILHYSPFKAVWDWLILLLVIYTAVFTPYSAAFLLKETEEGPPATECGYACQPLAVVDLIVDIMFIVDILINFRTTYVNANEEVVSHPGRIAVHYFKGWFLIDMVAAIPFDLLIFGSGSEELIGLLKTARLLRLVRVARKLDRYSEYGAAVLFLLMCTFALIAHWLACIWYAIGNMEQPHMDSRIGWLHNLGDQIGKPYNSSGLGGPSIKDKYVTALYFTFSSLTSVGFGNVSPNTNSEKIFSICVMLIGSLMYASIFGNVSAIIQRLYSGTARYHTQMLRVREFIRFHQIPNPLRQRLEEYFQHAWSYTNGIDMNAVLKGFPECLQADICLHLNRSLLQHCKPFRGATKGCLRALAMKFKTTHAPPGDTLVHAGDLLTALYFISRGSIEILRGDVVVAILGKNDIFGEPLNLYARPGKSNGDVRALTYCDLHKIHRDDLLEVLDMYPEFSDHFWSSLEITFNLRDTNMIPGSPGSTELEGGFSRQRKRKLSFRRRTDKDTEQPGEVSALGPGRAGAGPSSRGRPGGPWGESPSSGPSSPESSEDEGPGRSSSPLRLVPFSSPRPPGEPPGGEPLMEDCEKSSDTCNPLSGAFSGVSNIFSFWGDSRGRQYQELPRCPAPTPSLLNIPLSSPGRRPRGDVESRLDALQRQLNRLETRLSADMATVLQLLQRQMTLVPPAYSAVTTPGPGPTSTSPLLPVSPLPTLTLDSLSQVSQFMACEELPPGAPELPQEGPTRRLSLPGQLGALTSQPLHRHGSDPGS

SMILES	hERG current change (%, negative = inhibition) at 1uM
CCn1c(CC(=O)Nc2ccccc2)nnc1SCC(=O)Nc1nnc(C)s1	14.7%
CCCCNC(=O)/C(C#N)=C/c1ccc(C(=O)OC)cc1	15.1%
CC1CCCCC1NC(=O)CSc1nc2ccccc2c(=O)n1Cc1ccco1 (stereo not shown)	12.9%
CC(C)C[C@H](NC(=O)[C@@H]1Cc2c([nH]c3ccccc23)C2c3ccccc3C(=O)N21)C(=O)N1CCC[C@@H]1C(=O)O (stereo partly shown)	7.08%
COc1ccc(NS(=O)(=O)c2cccc(C(=O)NCc3ccco3)c2)cc1	-5.46%
O=C(Nc1ccc(S(=O)(=O)N2CCCCC2)cc1)C1CC(=O)N(c2ccc(Cl)cc2)C1 (stereo not shown)	9.9%
CN(C)S(=O)(=O)c1cccc(C(=O)N2CCC(C(=O)O)(c3ccccc3)CC2)c1	17.6%
COc1ccc(NC(=O)C(Sc2ccccc2)c2ccccc2)c(OC)c1 (stereo not shown)	-0.796%
CC12CCC(C(=O)N3CCCCC3)([C@H](Br)C1=O)C2(C)C (stereo partly shown)	12.8%
CC1(C)Cc2c(C#N)c(SCCOc3ccccc3)nc(N3CCOCC3)c2CO1	7.33%
CC(=O)C(Sc1nc(N2CCOCC2)nc(N2CCOCC2)n1)C(=O)Nc1ccccc1 (stereo not shown)	6.79%
O=C(/C=C/c1ccc(OCCCF)cc1)NCc1ccc(Cl)c(Cl)c1	7.75%
CC(=O)c1c(C)oc2ccc(NS(=O)(=O)c3cccs3)cc12	11%
COc1ccccc1CNC(=O)C(=O)c1cn(CC(=O)N2CCOCC2)c2ccccc12	18%
Cc1c(NC(=O)COC(=O)CCc2c[nH]c3ccccc23)c(=O)n(-c2ccccc2)n1C	-4.93%
O=C(NCc1ccccc1)c1sc(=S)n2c1[nH]c(=O)c1ccccc12	-4.75%
O=C(N/N=C/c1cccnc1)c1ccc2c(c1)OCCO2	-5.82%
COc1ccc(Cc2nn[nH]n2)cc1	0.0315%
CCOC(=O)c1c(P(=O)(N2CCOCC2)N2CCOCC2)noc1N	2.4%
COc1ccccc1C1CC(c2cccs2)=NN1C(=O)CCC(=O)O (stereo not shown)	9.5%
Cn1c(COc2ccc(Br)cc2)nnc1SC1CCc2ccccc2C1=O (stereo not shown)	10.7%
Cc1ccc(C2CC(=O)C(C=NCCN3CCN(C(=S)Nc4ccc(F)cc4)CC3)=C(O)C2)cc1 (stereo not shown)	-7.16%

SMILES	hERG current change (%, negative = inhibition) at 1uM
CCN1C(=O)CC(N2CCN(C(c3ccccc3)c3ccccc3)CC2)C1=O (stereo not shown)	3.52%
NC(=O)C1CCN(C(=O)COc2cccc3cccnc23)CC1	13.2%
C=Cc1ccc(C2=CC(=O)C[C@H](c3ccc(OC)cc3)C2)cc1	14.5%
Cc1ccc(NCc2nnc(SCCN3CCCCC3)n2CC2CCCO2)cc1Cl (stereo not shown)	-59.1%
Cc1ccccc1Nc1n[nH]c(C)c1[N+](=O)[O-]	12.3%
CC(=O)c1ccc(N2CCN(C(=O)c3cc4c(s3)CCCC4)CC2)cc1	-1.15%
CCOC(=O)C1=C(C)N=c2s/c(=C3\C(=O)Nc4ccccc43)c(=O)n2C1c1ccc2c(c1)OCO2 (stereo not shown)	4.52%
N/C(CCS(=O)(=O)c1ccc(Cl)cc1)=N\OC(=O)c1ccccc1C(F)(F)F	-5.27%
C/C(N)=C(/C#N)C(=O)CSc1ccccc1F	18%
N#Cc1c(N)n(C2CCCCC2)c2nc3ccccc3nc12	14.8%
CC1(C)CC(=O)C(C(C2=C(O)CC(C)(C)CC2=O)c2ccc(Cl)c([N+](=O)[O-])c2)C(=O)C1 (stereo not shown)	-5.61%
Cc1sc(N)c(C#N)c1C	4.65%
CC1CCCCN1C(=O)Cn1cc(C=C2C(=O)N(C)C(=O)N(C)C2=O)c2ccccc21 (stereo not shown)	8.86%
O=C(C1=C[C@H](c2ccccc2)C[C@H](OCCCCO)O1)N1CCN(Cc2ccc3c(c2)OCO3)CC1	-8.06%
O=C(CN1CC[C@@]2(O)CCCC[C@H]2[C@@H]1c1ccc(F)cc1)NCc1ccco1	3.24%
CCn1cc(CN2CCC(n3nccc3NC(=O)c3cccc(F)c3)CC2)c(C)n1	14.2%
CC(=O)N1CCN(c2ccccc2NC(=O)COc2ccccc2C)CC1	14.7%
COc1ccc(/C=C/C(=O)O)cc1S(=O)(=O)N1CCC(Cc2ccccc2)CC1	14.9%
O=C1NC(=S)S/C1=C\c1ccc(SCc2ccco2)o1	-3.45%
O=C(O)c1ccn(Cn2cnc3ccccc32)n1	4.47%
CCOC(=O)c1c(C)[nH]c(C)c1S(=O)(=O)N1CCC(c2ccccc2)C1 (stereo not shown)	12.5%
Cc1ccc(NC(=O)c2cccs2)cc1NC(=O)c1ccco1	10.1%

SMILES	hERG current change (%, negative = inhibition) at 1uM
Nc1c(C(=O)OC2CCCCC2)c2nc3ccccc3nc2n1CC1CCCO1 (stereo not shown)	-13%
NS(=O)(=O)OCCCCCc1ccccc1	16.1%
Cc1ccnc2nc(C(=O)OCCOc3ccc(Cl)cc3)nn12	-2.12%
COCCOC(=O)c1[nH]c2c(c1C)C(=O)CC(c1ccc(OC)cc1)C2 (stereo not shown)	9.46%
COc1ccc(/C(C)=N/N=C(N)N)c(OC)c1	-1.56%
COc1ccc(C(=O)NC(=S)N2CC(C)OC(C)C2)cc1OC (stereo not shown)	7.44%
O=C(Nc1ccc2c(c1)C(=O)OC2)c1ccc(C(F)(F)F)cc1	13.8%
Cc1ccc(/C=C2/C(=O)NC(=O)N(Cc3ccc(F)cc3)C2=O)o1	15.7%
Cn1cc(CNC(=O)CC2C(=O)NCCN2CC(C)(C)C)cn1 (stereo not shown)	11.7%
C=CCNC(=O)NC(=S)c1ccccc1	3.7%
COC(=O)c1sccc1NC(=O)Nc1cc(C)cc(C)c1	20.7%
COCc1c(C(=O)NC2CCCCC2)sc2cccc(F)c12	4.68%
C/C(=N\NC(=S)Nc1ccccc1C)C1Cc2ccccc2C(=O)O1 (stereo not shown)	-0.045%
Cc1cccc(OCC2Cn3c(nc4c3c(=O)[nH]c(=O)n4C)O2)c1 (stereo not shown)	17.6%
O=C(O)CSC1CC(=O)N(c2ccc(Cl)cc2)C1=O (stereo not shown)	15.8%
COc1ccc(C(C)=O)cc1COC(=O)c1cnc(C)cn1	17.6%
CN(Cc1cccs1)C(=O)CCc1ccc(S(=O)(=O)N2CCOCC2)cc1	0.097%
Cc1noc(C)c1COc1ccc(C(=O)OC(C)C(=O)Nc2ccc(S(=O)(=O)N3CCOCC3)cc2)cc1 (stereo not shown)	15%
O=C1CNC(=O)/C1=C\N1CCN(C(c2ccccc2)c2ccccc2)CC1	5.02%
Cc1cc(NC(=O)c2cc([N+](=O)[O-])cc([N+](=O)[O-])c2)no1	14.2%
CC(C)OCC1Cn2c(nc3c2c(=O)n(C)c(=O)n3C)O1 (stereo not shown)	15.5%
Cc1cc(SCC(=O)NCCCN2CCCC2=O)nc2ccccc12	10.3%

SMILES	hERG current change (%, negative = inhibition) at 1uM
O=C(c1ccc(Cl)cc1)N1CCC(c2nc(-c3cccs3)no2)CC1	1.98%
O=C(Nc1ccc(NC(=O)c2ccccc2Cl)cc1)c1cccnc1	16.6%
COc1cccc(-c2nnc(SCC(N)=O)n2-c2ccc(Cl)cc2)c1	-1.77%
O=C(O)CC1=C(O)C(=O)N(c2ccccc2)C1c1ccccc1 (stereo not shown)	13.6%
CN(C)CCOC(=O)c1cn(Cc2ccccc2)c2ccccc12.Cl	-18.4%
CCCC(=O)N(C)c1nnc(-c2ccc(OC)cc2)s1	14.2%
NS(=O)(=O)c1ccc(CCNC(=O)C2CCCN2C(=O)OCc2ccccc2)cc1 (stereo not shown)	12.4%
Cc1cccc2cc(C#N)c(NCCCn3ccnc3)nc12	-11.1%
CN1C(=O)/C(=C/c2ccccc2OCc2ccccc2F)NC1=S	13.8%
COc1ccc(NS(=O)(=O)c2ccc(C)c(NC(=O)c3ccc(C)c(S(=O)(=O)N4CCOCC4)c3)c2)cc1	9.07%
CCOc1ccc(CNCCN2CCCC2)cc1.O=C(O)C(=O)O	-18.2%
CCOc1ccc(C(=O)N2CCN(c3cccc(Cl)c3)CC2)cc1	-20.3%
Cc1[nH]c2ccccc2c1/C=C(\C#N)C(=O)NCC1CCCO1 (stereo not shown)	10.9%
COc1ccc(Cn2c(=O)[nH]c3cc(C(=O)N4CCN(Cc5ccccc5)CC4)ccc3c2=O)cc1	8.77%
Cc1ccc(SCc2nc3ccccc3[nH]2)cc1	-0.976%
COc1ccc(-c2cn3c(C)c(C(=O)N4CCc5ccccc5C4)sc3n2)cc1	11.5%
COc1ccccc1N1CCN(S(=O)(=O)c2ccc3c(c2)oc(=O)n3C)CC1	-2.7%
Cc1ccccc1S(=O)(=O)Nc1ncnc2sccc12	15.8%
Cn1nnc(NCc2cc(Br)ccc2OCc2ccccc2F)n1	5.37%
Cc1ccc(C)c(N(CC(=O)NC2CCCC2)C(=O)CCC(=O)Nc2cc(C)on2)c1	14.1%
Cc1cc(C)cc(NC(=O)C2CCN(C(=O)c3cccs3)CC2)c1	11.6%
Cc1ccc(S(=O)(=O)N2CCSC2c2ccco2)cc1 (stereo not shown)	6.48%
